The source of these data is publication PMC4081100.

The list shows a part of the results, in another mix than the full data. For some of these results: At the low end of the ranking, values are background and their order means little. Some of the results follow. For some of these results: Construct or isoform of the protein are uncertain.

Common to all, as to test: universal protein binding microarray (PBM)
Common to all, as to details: transcription factors of Arabidopsis thaliana; high values mean tight binding; most listed sequences are background and not binding sites; double strand, one strand shown

One assay deals with T1, GST-ANAC092(1-176) (UniProt Q9FKA0).
T1 sequence: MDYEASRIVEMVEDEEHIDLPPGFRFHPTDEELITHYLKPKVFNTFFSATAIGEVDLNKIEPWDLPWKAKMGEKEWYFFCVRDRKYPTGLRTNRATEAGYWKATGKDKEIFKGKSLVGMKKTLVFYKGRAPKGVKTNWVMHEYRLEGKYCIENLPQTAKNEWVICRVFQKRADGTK

The next assay addresses GST-NTL6(1-168) (UniProt Q9SCK6).
The target in a further assay is T2, GST-ANAC019 NAC domain (UniProt Q9C932).
T2 sequence: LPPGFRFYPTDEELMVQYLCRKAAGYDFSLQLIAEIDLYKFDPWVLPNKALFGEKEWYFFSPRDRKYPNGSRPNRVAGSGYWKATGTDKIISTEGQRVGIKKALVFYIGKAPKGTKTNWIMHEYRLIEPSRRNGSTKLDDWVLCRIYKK

In another assay the target is T3, GST-ANAC055(1-171) (UniProt Q9LDY8).
T3 sequence: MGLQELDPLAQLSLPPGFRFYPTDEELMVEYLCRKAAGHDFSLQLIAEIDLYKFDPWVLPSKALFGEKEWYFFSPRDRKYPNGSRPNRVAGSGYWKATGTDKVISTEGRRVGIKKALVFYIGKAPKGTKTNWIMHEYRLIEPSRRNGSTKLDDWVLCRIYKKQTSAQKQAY

Another assay deals with T4, GST-ATAF1 NAC domain (UniProt Q39013).
T4 sequence: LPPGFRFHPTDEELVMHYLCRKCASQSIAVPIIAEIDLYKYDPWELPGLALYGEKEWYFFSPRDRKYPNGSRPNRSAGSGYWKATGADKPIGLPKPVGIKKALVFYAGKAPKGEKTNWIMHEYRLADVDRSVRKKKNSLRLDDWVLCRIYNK

For another assay, the target named is T5, GST-NAP(1-166) (UniProt O49255).
T5 sequence: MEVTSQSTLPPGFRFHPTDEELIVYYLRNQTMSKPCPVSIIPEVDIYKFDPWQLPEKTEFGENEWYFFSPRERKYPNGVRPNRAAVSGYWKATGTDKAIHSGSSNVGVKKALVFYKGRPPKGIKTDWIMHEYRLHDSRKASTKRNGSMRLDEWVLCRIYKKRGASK

The next assay concerns the target T6, GST-NST2(1-184) (UniProt Q9M274).
T6 sequence: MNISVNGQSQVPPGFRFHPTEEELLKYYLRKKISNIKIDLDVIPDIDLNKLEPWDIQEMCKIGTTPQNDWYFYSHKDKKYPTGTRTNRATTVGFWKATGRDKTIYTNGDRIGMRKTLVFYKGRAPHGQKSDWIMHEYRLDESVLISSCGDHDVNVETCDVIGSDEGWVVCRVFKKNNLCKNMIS

The next assay deals with T7, GST-NTL8 NAC domain (UniProt Q9XIN7).
T7 sequence: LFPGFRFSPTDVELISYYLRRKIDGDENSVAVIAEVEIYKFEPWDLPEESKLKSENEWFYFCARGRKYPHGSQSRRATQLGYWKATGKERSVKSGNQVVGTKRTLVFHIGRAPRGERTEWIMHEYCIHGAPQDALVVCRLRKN

In another assay the target is T8, GST-SND1(1-203) (UniProt Q9LPI7).
T8 sequence: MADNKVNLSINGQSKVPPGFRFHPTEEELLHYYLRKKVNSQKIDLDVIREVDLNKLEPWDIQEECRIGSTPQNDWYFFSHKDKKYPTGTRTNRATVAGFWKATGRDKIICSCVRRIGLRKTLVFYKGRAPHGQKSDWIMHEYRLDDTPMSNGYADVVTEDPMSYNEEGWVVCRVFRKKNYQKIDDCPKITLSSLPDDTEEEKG

Another assay addresses T9, GST-VND3 NAC domain (UniProt Q9FH59).
T9 sequence: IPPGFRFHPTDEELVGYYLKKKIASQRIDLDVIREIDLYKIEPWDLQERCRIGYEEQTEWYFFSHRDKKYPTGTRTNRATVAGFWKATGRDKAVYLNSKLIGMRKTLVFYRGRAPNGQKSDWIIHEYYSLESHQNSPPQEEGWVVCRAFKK

The target of another assay is T10, GST-VND7 NAC domain (UniProt Q9C8W9).
T10 sequence: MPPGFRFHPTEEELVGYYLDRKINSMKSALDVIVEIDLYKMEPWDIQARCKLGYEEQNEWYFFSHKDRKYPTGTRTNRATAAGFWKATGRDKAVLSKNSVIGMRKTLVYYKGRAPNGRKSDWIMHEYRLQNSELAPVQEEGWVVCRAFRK

In assay [1] the target is T11, GST-VOZ2 (Arabidopsis thaliana) (UniProt Q9SLB9).
T11 sequence: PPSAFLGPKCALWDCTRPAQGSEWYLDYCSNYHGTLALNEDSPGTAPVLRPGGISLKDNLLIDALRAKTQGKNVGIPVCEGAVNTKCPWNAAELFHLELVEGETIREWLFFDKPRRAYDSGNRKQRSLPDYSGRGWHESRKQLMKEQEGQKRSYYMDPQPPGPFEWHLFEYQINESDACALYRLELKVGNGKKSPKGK

Assay [2] concerns the target T12, GST-ANAC092(1-285) full length (UniProt Q9FKA0).
T12 sequence: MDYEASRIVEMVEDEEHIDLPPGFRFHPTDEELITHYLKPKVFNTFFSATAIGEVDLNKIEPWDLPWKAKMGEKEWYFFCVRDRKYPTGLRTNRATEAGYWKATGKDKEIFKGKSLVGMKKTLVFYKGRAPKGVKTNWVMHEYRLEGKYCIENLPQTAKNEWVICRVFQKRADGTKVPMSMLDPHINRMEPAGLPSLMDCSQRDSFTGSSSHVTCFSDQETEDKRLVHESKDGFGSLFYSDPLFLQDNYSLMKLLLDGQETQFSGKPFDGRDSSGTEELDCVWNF

For the sequence TGAGTCAA, the binding signal is -0.0222 E-score with GST-ANAC092(1-176); -0.0353 E-score with GST-NTL6(1-168); 0.0445 E-score in the assay with GST-ANAC019 NAC domain; -0.148 E-score with GST-ANAC055(1-171); -0.0618 E-score with GST-ATAF1 NAC domain; -0.0903 E-score with GST-NAP(1-166). Also, the binding signal in the assay with GST-NST2(1-184) was -0.0322 E-score; in the assay with GST-NTL8 NAC domain it was -0.0301 E-score; with GST-SND1(1-203), 0.0422 E-score; in the assay with GST-VND3 NAC domain, 0.0214 E-score; with GST-VND7 NAC domain, -0.0481 E-score; in assay [1], 0.0123 E-score.
Consider CTAAGTCA, for which the binding signal with GST-ANAC092(1-176) was -0.194 E-score; with GST-ANAC019 NAC domain it was -0.0986 E-score; in the assay with GST-ANAC055(1-171), -0.156 E-score; with GST-ATAF1 NAC domain, -0.165 E-score; in assay [2], -0.102 E-score; with GST-NAP(1-166), -0.135 E-score. Further, the binding signal with GST-NST2(1-184) is -0.00947 E-score; in the assay with GST-NTL8 NAC domain it was -0.161 E-score; with GST-SND1(1-203), 0.0346 E-score; in the assay with GST-VND3 NAC domain it was -0.0318 E-score; with GST-VND7 NAC domain, -0.159 E-score; in [1], -0.11 E-score.
For TGACTGCA, the binding signal in the assay with GST-ANAC092(1-176) was 0.036 E-score; with GST-NTL6(1-168), 0.0778 E-score; in the assay with GST-ANAC019 NAC domain, 0.0411 E-score; with GST-ATAF1 NAC domain, 0.0918 E-score; in assay [2], -0.00967 E-score; in the assay with GST-NAP(1-166) it was 0.00894 E-score. Moreover, the binding signal with GST-NST2(1-184) was -0.0202 E-score; with GST-NTL8 NAC domain, -0.102 E-score; with GST-SND1(1-203), -0.0654 E-score; with GST-VND3 NAC domain, -0.0536 E-score; with GST-VND7 NAC domain it was -0.0195 E-score; in assay [1] it was -0.00178 E-score.
Regarding AGTTGACC, the binding signal with GST-ANAC092(1-176) is -0.0113 E-score; with GST-ANAC019 NAC domain, -0.0473 E-score; with GST-ANAC055(1-171), -0.0575 E-score; with GST-ATAF1 NAC domain, -0.0243 E-score; in assay [2], -0.0465 E-score; with GST-NAP(1-166) it was -0.00299 E-score. For the same sequence, the binding signal with GST-NST2(1-184) is -0.0272 E-score; with GST-NTL8 NAC domain, -0.0823 E-score; with GST-SND1(1-203), -0.162 E-score; with GST-VND3 NAC domain it was -0.104 E-score; with GST-VND7 NAC domain it was -0.0777 E-score; in assay [1], 0.0333 E-score.
Consider GAATTGAC, for which the binding signal in the assay with GST-ANAC092(1-176) was -0.0196 E-score; in the assay with GST-NTL6(1-168) it was 0.0313 E-score; with GST-ANAC019 NAC domain, -0.00835 E-score; in the assay with GST-ANAC055(1-171), 0.0993 E-score; in the assay with GST-NAP(1-166), -0.0676 E-score; with GST-NTL8 NAC domain, 0.051 E-score. Besides, the binding signal with GST-SND1(1-203) was found to be 0.047 E-score; with GST-VND3 NAC domain it was 0.0444 E-score; in the assay with GST-VND7 NAC domain, 0.0199 E-score; in [1], 0.0296 E-score.
With CGAAGTCA, the binding signal is -0.0552 E-score with GST-ANAC092(1-176); 0.0496 E-score with GST-ANAC019 NAC domain; -0.149 E-score in the assay with GST-ANAC055(1-171); -0.06 E-score in the assay with GST-ATAF1 NAC domain; -0.086 E-score in [2]; -0.0384 E-score in the assay with GST-NAP(1-166). The binding signal with GST-NST2(1-184) was -0.0124 E-score; with GST-SND1(1-203) it was 0.0225 E-score; in the assay with GST-VND3 NAC domain, -0.188 E-score; in the assay with GST-VND7 NAC domain, -0.0145 E-score; in assay [1], -0.0881 E-score.
On to AAAGTCAA, for which the binding signal in the assay with GST-ANAC092(1-176) was 0.0335 E-score; with GST-NTL6(1-168) it was 0.0854 E-score; with GST-ANAC019 NAC domain it was 0.0139 E-score; in [2], 0.017 E-score; with GST-NAP(1-166), -0.0688 E-score; in the assay with GST-NTL8 NAC domain, -0.0139 E-score. Also, the binding signal is 0.118 E-score with GST-SND1(1-203), 0.0095 E-score with GST-VND3 NAC domain, -0.0243 E-score in the assay with GST-VND7 NAC domain and 0.0357 E-score in [1].
Take AGTCAATG: the binding signal in the assay with GST-ANAC092(1-176) was -0.0193 E-score; with GST-NTL6(1-168) it was -0.0344 E-score; with GST-ANAC019 NAC domain it was -0.114 E-score; with GST-ANAC055(1-171) it was 0.0211 E-score; in [2] it was -0.019 E-score; with GST-NAP(1-166), -0.1 E-score. In addition, the binding signal in the assay with GST-NTL8 NAC domain was -0.113 E-score; in the assay with GST-SND1(1-203), -0.0272 E-score; with GST-VND3 NAC domain, -0.00324 E-score; with GST-VND7 NAC domain it was -0.0476 E-score; in [1], 0.0261 E-score.
Take GGCTTGAC: the binding signal with GST-NTL6(1-168) is -0.107 E-score; with GST-ANAC019 NAC domain, 0.0223 E-score; with GST-ANAC055(1-171), -0.000295 E-score; with GST-ATAF1 NAC domain it was 0.00809 E-score; in assay [2], 0.0438 E-score; with GST-NAP(1-166), 0.0264 E-score. The binding signal with GST-NST2(1-184) is -0.0529 E-score; in the assay with GST-NTL8 NAC domain it was -0.0385 E-score; with GST-SND1(1-203), -0.063 E-score; with GST-VND3 NAC domain it was -0.0687 E-score; with GST-VND7 NAC domain it was -0.0664 E-score; in [1] it was -0.0945 E-score.
In the case of GACTTGAC, the binding signal with GST-ANAC092(1-176) is -0.056 E-score; with GST-NTL6(1-168), 0.0331 E-score; in the assay with GST-ANAC019 NAC domain, -0.0379 E-score; with GST-NAP(1-166), -0.015 E-score; with GST-NST2(1-184), 0.0163 E-score; with GST-NTL8 NAC domain, 0.0707 E-score. In addition, the binding signal in the assay with GST-SND1(1-203) amounted to 0.0161 E-score; with GST-VND3 NAC domain it was 0.0396 E-score; with GST-VND7 NAC domain, 0.00069 E-score; in assay [1] it was 0.0802 E-score.
